In PMC4336329 (PLoS ONE, 2015):
In all, about 310,000 compounds went through this assay and about 14,000 (4.5%) showed an effect of 50% or more. Effects have a minus sign here. Some of the results follow.

Each compound was assayed against human ether-à-go-go-related gene (hERG) potassium channel (human, UniProt Q12809) (assay: primary screen, population patch clamp on CHO cells stably expressing hERG).
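Also: peak tail current of the secondary pulse compared with the same well before compound.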

Chain of human ether-à-go-go-related gene (hERG) potassium channel (Q12809 whole entry, looked up): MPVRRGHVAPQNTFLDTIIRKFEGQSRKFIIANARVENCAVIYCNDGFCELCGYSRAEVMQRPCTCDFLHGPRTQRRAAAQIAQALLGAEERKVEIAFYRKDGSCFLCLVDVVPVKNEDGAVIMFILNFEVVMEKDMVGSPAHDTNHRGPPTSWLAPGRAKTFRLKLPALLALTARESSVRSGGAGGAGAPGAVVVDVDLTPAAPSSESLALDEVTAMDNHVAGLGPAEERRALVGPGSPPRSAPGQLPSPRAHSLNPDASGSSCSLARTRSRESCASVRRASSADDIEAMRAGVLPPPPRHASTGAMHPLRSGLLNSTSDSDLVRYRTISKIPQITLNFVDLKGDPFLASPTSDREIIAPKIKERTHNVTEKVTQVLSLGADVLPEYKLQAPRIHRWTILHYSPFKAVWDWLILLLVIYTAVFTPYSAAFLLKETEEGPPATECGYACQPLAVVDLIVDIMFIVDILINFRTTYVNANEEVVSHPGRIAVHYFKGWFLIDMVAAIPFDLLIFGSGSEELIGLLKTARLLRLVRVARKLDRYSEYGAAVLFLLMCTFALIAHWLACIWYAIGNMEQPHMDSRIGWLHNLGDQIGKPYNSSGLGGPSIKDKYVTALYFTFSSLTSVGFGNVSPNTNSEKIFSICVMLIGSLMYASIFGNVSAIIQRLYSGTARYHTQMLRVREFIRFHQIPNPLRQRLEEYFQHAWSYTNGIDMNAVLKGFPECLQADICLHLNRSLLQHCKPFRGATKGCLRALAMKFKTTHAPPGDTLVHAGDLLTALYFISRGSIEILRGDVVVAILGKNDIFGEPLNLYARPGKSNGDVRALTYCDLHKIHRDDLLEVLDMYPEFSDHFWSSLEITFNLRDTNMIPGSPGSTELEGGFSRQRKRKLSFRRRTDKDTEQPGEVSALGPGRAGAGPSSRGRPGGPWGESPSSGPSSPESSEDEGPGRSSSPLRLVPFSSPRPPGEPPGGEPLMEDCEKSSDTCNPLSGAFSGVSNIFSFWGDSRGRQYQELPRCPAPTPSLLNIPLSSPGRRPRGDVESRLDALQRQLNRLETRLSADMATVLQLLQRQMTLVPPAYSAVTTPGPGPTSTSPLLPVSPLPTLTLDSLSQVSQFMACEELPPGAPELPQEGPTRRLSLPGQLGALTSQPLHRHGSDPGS

SMILES	hERG current change (%, negative = inhibition) at 10uM
Cc1ccc(NC(=O)CSc2ncc(-c3ccccc3)n2C(=O)c2ccccc2)cc1	3.93%
CN(C1CCCC1)C1CCN(C(=O)CNC(=O)/C=C/c2ccccc2)CC1	-53.8%
Cc1c(NC(=S)NC(=O)Cc2ccccc2)cccc1C(=O)O	-11.8%
COc1ccc(-c2nnc(SCC(=O)c3ccco3)n2-c2ccccc2)cc1	3.04%
COc1ccc(CCN(C)C(=O)c2cc(-c3ccccc3)nc3ccccc23)cc1OC	-4.79%
Cc1ccc(NC(=O)c2ccc(NCC3CCCO3)c([N+](=O)[O-])c2)cc1Cl (stereo not shown)	3.63%
CCOC(=O)N1CCN(C(=O)CNC(=O)c2ccc(Br)o2)CC1	11.7%
CCCN(CC(=O)Nc1ccccc1C)C(=O)COc1ccc2c(c1)CCC2	12.5%
CCCCCc1cc(=O)oc2c(C(CCN3CCCC(C)C3)c3ccc(OC)cc3)c(OC)cc(OC)c12 (stereo not shown)	-27.8%
Cc1cc(Cl)ccc1NC(=O)CSc1nnc(Cc2cccs2)n1Cc1ccco1	-45.3%
COc1cccc(CNC(=O)CN2C(=O)COc3ccc(S(=O)(=O)N4CCCC4)cc32)c1	-19.8%
Cc1ccc(-n2cccc2C(=S)N=P(N(C)C)(N(C)C)N(C)C)cc1	6.86%
CCOc1ccccc1Oc1c(C)oc2cc(OC(=O)N3CCOCC3)ccc2c1=O	4.41%
CC1CC(C)CN(C(=O)CCCn2c(=O)c3cccn3c3cccnc32)C1 (stereo not shown)	-11%
COc1cc(OC)cc(C(C)=O)c1	18.6%
O=C(NCc1ccco1)c1scc2c1OCCO2	-1.28%
CCOC(=O)c1ccc(N2C(=O)CC(N3CCC(Nc4ccc(F)cc4)CC3)C2=O)cc1 (stereo not shown)	8.31%
COc1ccc(CN(C)CC2CCCN(CCc3ccccc3C)C2)cc1O (stereo not shown)	-53.8%
O=C(COc1ccc(Cl)cc1Cl)N1CCCC1	-1.44%
COc1cccc(NC(=O)CN(C)C(=O)COc2ccccc2Cc2ccccc2)c1	-7.84%
Cc1c(CNCCC2=CCCCC2)c(C(=O)O)c(C)n1Cc1ccccc1	-13.3%
COc1ccc2c(c1OC)C(=O)N1c3cccc(Cl)c3C(=O)OC21 (stereo not shown)	-2.79%

SMILES	hERG current change (%, negative = inhibition) at 10uM
Cc1ccc2c(CSc3nnc(C4CC4)n3N)cc(=O)oc2c1C	-7.55%
CCn1nnnc1Oc1ccc(Cl)cc1	2.38%
COCC(=O)Nc1ccc(N2CCCC2)c(S(=O)(=O)Nc2ccccc2OC)c1	-22.1%
CCn1c(=NC(=O)c2cccc(N3C(=O)CCC3=O)c2)sc2c(OC)ccc(OC)c21	12.5%
Cl.Cn1c(=N)n(CC(O)c2ccccc2)c2ccccc21 (stereo not shown)	-26.3%
Cc1cccc(N2CCN(S(=O)(=O)c3c(C)nc4scc(C)n4c3=O)CC2)c1C	-3.51%
CCOc1ccccc1N1CC(C(=O)Nc2ccccc2N2CCCC2)CC1=O (stereo not shown)	16.8%
Cc1ccc(CNC(=O)c2ccc3c(=O)[nH]c4c(C(=O)NCC5CCCO5)sc(=S)n4c3c2)cc1 (stereo not shown)	-32%
COc1ccc(C(=O)N2CCNC(=O)C2)cc1S(=O)(=O)Nc1ccc(Br)cc1	1.15%
C=C(CC1CC(O)[C@]2(C)OC3CC4OC5C[C@]6(C)O[C@]7(C)CCC8OC9C[C@]%10(C)OC%11C(C)=CC(=O)OC%11CC%10OC9C[C@@H](C)C8OC7CC6O[C@]5(C)C/C=C\C4OC3CC2O1)C(=O)O (stereo partly shown)	0.53%
COc1cc(NC(=S)N2CCCC(C)C2)c(OC)cc1Cl (stereo not shown)	33.4%
CCc1ccc(NS(=O)(=O)c2ccc3[nH]cc(C(=O)N(C)Cc4ccco4)c(=O)c3c2)cc1	0.0432%
Cl.Ic1ccc(N2CCN(Cc3c[nH]c4ncccc34)CC2)cc1	-2.49%
O=C(Cn1cc(C(F)(F)F)ccc1=O)N/N=C/c1cccc(Cl)c1Cl	-4.01%
C=CCN(CC=C)c1nc2ccccc2nc1C(C#N)C(=O)OCCOC (stereo not shown)	-29.8%
COc1ccc(NC(=S)N2CCC(c3ccc(C)cc3)C2)cc1 (stereo not shown)	-1.56%
COc1cccc(C(=O)NC(C)C(c2cccs2)N2CCN(C)CC2)c1 (stereo not shown)	-10.8%
Clc1cccc(-c2nnc(-c3ccno3)o2)c1	1.4%
CCOc1ccccc1NC(=O)NCc1ccccc1F	13.1%
C=CCn1c(SCC(=O)NC(=O)NCC(C)C)nnc1C1CCCCC1	2.18%
COc1cccc(N2C(=O)C3C(C2=O)C3(c2ccccc2)c2ccccc2)c1 (stereo not shown)	-3.19%
